Measurements published in PubChem BioAssay AID485281 (National Center for Advancing Translational Sciences (NCATS), 2010).
Where “and” joins values, the source holds several entries; their conditions need not be identical. Equal values may be shown once. Screen size: about 350,000 compounds; about 260 (0.074%) were called active. The inconclusive results got no clear call from the source; some entries with a clear call stand among them for comparison. The call rests on the fitted dose curve; in most records, active means well fitted inhibition curve with a large enough effect; inconclusive means small, poorly fitted or top-dose-only effect; inactive means no such curve, though single readings can be large or run the other way. Potencies beside an inconclusive call are fits to weak or partial responses and may not hold up.

What follows are compounds tested against Ferritin light chain (Equus caballus) (UniProt P02791) (assay: qHTS Assay for Identification of Novel General Anesthetics). Conditions: apoferritin/1-aminoanthracene competitive binding, fluorescence; activity change, negative = displacement: at 77.5 µM (top of the series).
Sequence of UniProt P02791 (P02791 whole entry, looked up): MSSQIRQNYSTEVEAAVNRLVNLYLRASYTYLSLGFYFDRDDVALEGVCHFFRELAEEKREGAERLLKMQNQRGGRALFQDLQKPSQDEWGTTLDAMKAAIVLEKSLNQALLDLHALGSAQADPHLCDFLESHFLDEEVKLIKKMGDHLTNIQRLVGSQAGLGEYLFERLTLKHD
Method in brief: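 Horse-spleen apoferritin (10 uM) in 50% saturated 1-aminoanthracene in PBS was incubated 10 min at room temperature with compound. Fluorescence (ex 380, em 535 nm) was normalized to free and bound 1-AMA, with concentration-response fitted by a four-parameter Hill equation.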
Further: nearly all actives have a fitted effect of over 20% in size.
On the % scale 0 is the no-effect control and ±100 the full control effect; potency means the concentration at half of the fitted maximal effect; tags describe the fitted curve by direction and shape.

Structure (SMILES) | Potency | activity change, negative = displacement
CCN(CC)C(=O)Oc1ccc(Cl)c2cccnc12 | inconclusive: 39.8 µM [inhibitor, partial curve] | –
CC12CCC(C(=O)N(c3cccc(Cl)c3)C1=O)C2(C)C (centres undefined) | inconclusive: 14.1 µM [inhibitor, partial curve] | –
Cc1ccccc1CSc1nnc(-c2ccncc2)o1 | inconclusive: 31.6 µM [inhibitor, partial curve] | –
CN1C(=O)Cc2cc(S(=O)(=O)NCCc3ccccc3)ccc21 | inconclusive: 12.6 µM [inhibitor, partial curve] | –
Cc1n[nH]c(C)c1Sc1ccccc1[N+](=O)[O-] | inconclusive: 31.6 µM [inhibitor, single point] | –
C[N+](C)(C)CC/C=C1/c2ccccc2CSc2ccccc21 | – | inactive: -5.87%
Cc1[nH]c2ccccc2c1C(=O)C(=O)NCCCc1ccccc1 | inconclusive: 35.5 µM [inhibitor, single point] | –
COc1ccc2[nH]c(=O)c(CN(C(C)=O)c3cccc(C)c3)cc2c1 | – | inactive: -10.3%
Cc1ccc(Cl)cc1N1CCN(C(=O)Cc2c(C(=O)O)[nH]c3ccc(Cl)cc23)CC1 | – | inactive: -14.4%
NCCc1cnc(-c2cccc(C(F)(F)F)c2)[nH]1 | – | inactive: 2.25%
O=S(=O)(c1ccc2nc(COc3ccc(Cl)cc3Cl)[nH]c2c1)N1CCOCC1 | inconclusive: 7.94 µM [inhibitor, partial curve] | –
O=[N+]([O-])c1cc(S(=O)(=O)C(F)(F)F)ccc1Sc1nc2ccccc2s1 | – | inactive: -17.6%
CCc1c(C)nc2cc(-c3ccc(OC)cc3)[nH]n2c1=O | – | inactive: -12.5%
COc1ccc(-c2nc(NC(=O)c3ccc(OCC(=O)Nc4ccc(F)cc4)c(OC)c3)sc2C)cc1 | – | inactive: -9.13%
CC(C)N(C(=O)COC(=O)c1ccccc1C(=O)c1ccc(Cl)c([N+](=O)[O-])c1)C(C)C | inconclusive: 25.1 µM [inhibitor, partial curve] | –
C[C@@]12CC(=O)NC1N(C(=O)c1cccc(C(F)(F)F)c1)C(c1ccccc1OC(=O)c1cccc(C(F)(F)F)c1)C2 (some centres undefined) | inconclusive: 5.01 µM [inhibitor, full curve] | –
COc1cccc(NS(=O)(=O)c2ccc3c(c2)n(C)c(=O)c(=O)n3C)c1 | – | inactive: -8.21%
CCCc1ccc(OCCNC(=O)C2CCCCC2)cc1 | inconclusive: 14.1 µM [inhibitor, partial curve] | –
CCc1ccc(-n2c(=O)c3c4c(sc3n(CC(=O)NC(C)CC)c2=O)CCCC4)cc1 (centres undefined) | – | inactive: -3.7%
COCCCNC(=O)CSc1nc(-c2ccccc2)[nH]c1-c1ccc(C)cc1 | – | inactive: 5.02%
NC(=O)NC(=O)COC(=O)CCCc1c[nH]c2ccccc12 | inconclusive: 20 µM [inhibitor, partial curve] | –
CC(C(=O)Nc1cccc([N+](=O)[O-])c1)n1nnc2ccccc21 (centres undefined) | inconclusive: 31.6 µM [inhibitor, single point] | –
C/C1=C/CC(C)(C)/C=C/C/C(C)=C/CC1 | – | inactive: -9.23%

Structure (SMILES) | Potency | activity change, negative = displacement
CS(=O)(=O)N(Cc1ccco1)Cc1ccccc1Cl | inconclusive: 50.1 µM [inhibitor, single point] | –
CC(=O)c1cccc(NC(=O)N2CCC(NC(=O)C34CC5CC(CC(C5)C3)C4)CC2)c1 | inconclusive: 22.4 µM [inhibitor, partial curve] | –
Nc1cc(-c2ccccc2)ccc1O | inconclusive: 50.1 µM [inhibitor, single point] and inconclusive: 6.31 µM [inhibitor, partial curve] | –
O=C(NNC(=O)C12CC3CC(CC(C3)C1)C2)c1ccco1 | inconclusive: 10 µM [inhibitor, partial curve] | –
CCCCCC(O)c1cccc(OCc2ccc3ccccc3n2)c1 (centres undefined) | inconclusive: 20 µM [inhibitor, partial curve] | –
COc1ccc(Nc2ccc(C(F)(F)F)cc2[N+](=O)[O-])cn1 | inconclusive: 44.7 µM [inhibitor, partial curve] | –
C=CCn1nnc2sc3c(c2c1=O)CCC(C)C3 (centres undefined) | inconclusive: 12.6 µM [inhibitor, partial curve] | –
CCOC(=O)C1=C(NC(=S)NC(=O)c2ccccc2)c2ccccc2CC1(C)C | inconclusive: 31.6 µM [inhibitor, partial curve] | –
O=C(CC1N=C2c3ccccc3N=C(SCc3ccccc3F)N2C1=O)NCc1cccs1 (centres undefined) | inconclusive: 35.5 µM [inhibitor, partial curve] | –
CN(Cc1ccccc1)C(NC(=O)c1ccccc1)C(Cl)(Cl)Cl (centres undefined) | inconclusive: 17.8 µM [inhibitor, partial curve] | –
COc1cccc(Nc2nc(-c3ccccc3)c3cc(C)ccc3n2)c1 | – | inactive: 37%
O=C(COc1ccc(-c2ccccc2)cc1)NN=C1CCCC1 | inconclusive: 10 µM [inhibitor, partial curve] | –
CCc1ccc(NC(=O)c2ccc3c(c2)C(=O)N(Cc2ccco2)C3=O)cc1 | inconclusive: 15.8 µM [inhibitor, partial curve] | –
CCOc1cc(CNCc2ccccc2)ccc1OCc1ccc(Cl)cc1 | – | inactive: -17.4%
Cc1ccc(NC(=O)C(Cc2ccccc2)NS(=O)(=O)c2cccc3nsnc23)c(C)c1 (centres undefined) | inconclusive: 10 µM [inhibitor, full curve, poor fit] | –
Cc1cc(C)n(C(=O)c2cc3sccc3[nH]2)n1 | inconclusive: 31.6 µM [inhibitor, single point] | –
CCCc1ccc(C(=O)N2CCN(c3ccccc3OCC)CC2)cc1 | inconclusive: 50.1 µM [inhibitor, single point] | –
Cc1ccc(Cl)cc1NC(=O)COc1ccccc1 | inconclusive: 31.6 µM [inhibitor, single point] | –
CCCSc1nc(N2CCOCC2)c2c(c1C#N)CCCC2 | – | inactive: 0.557%
CCn1nc(C)cc1C(=O)NC1CC(C)(C)Cc2c1cnn2-c1cccc(F)c1 (centres undefined) | inconclusive: 56.2 µM [inhibitor, single point] | –
C=CCc1ccccc1OCC(O)CN1CCN(CCN2C(=O)c3cccc4cccc(c34)C2=O)CC1 (centres undefined) | inconclusive: 11.2 µM [inhibitor, partial curve, poor fit] | –
O=C(Nc1cc(C(F)(F)F)ccc1Cl)C(Sc1n[nH]c(=O)[nH]c1=O)c1ccccc1 (centres undefined) | inconclusive: 50.1 µM [inhibitor, single point] | –
COc1cccc(NC(=O)/C(C#N)=C\c2cn(Cc3ccc(Cl)cc3)c3ccccc23)c1 | – | inactive: 42.3%

Structure (SMILES) | Potency | activity change, negative = displacement
O=C(O)c1cc(Cl)c2ccccc2c1O | – | inactive: -1.85%
CCCNS(=O)(=O)c1ccc(OCC(=O)NCCCOC)cc1 | – | inactive: 5%
Cc1ccc2nc(SCc3ccc([N+](=O)[O-])cc3)[nH]c2c1 | inconclusive: 17.8 µM [inhibitor, partial curve] | –
O=C(CSc1c2c(nc3cc(Cl)ccc13)CCCC2)NCc1ccco1 | inconclusive: 35.5 µM [inhibitor, partial curve] | –
CC(=O)Nc1ccc(OS(=O)(=O)c2cc(Cl)ccc2C)cc1 | inconclusive: 31.6 µM [inhibitor, partial curve] | –
CCOC(=O)C1=C(O)/C(=C/c2ccc(CNC(=O)C(=O)Nc3ccc(C)cc3)o2)N=C1C | inconclusive: 14.1 µM [inhibitor, partial curve] | –
COc1ccc(-c2nc(CN3CCN(C(=O)c4ccco4)CC3)c(C)o2)c(F)c1 | – | inactive: -13.9%
Clc1ccc(SCc2cc(-c3ccccc3)no2)cc1 | – | inactive: -12%
CCOC(=O)C1CSC(CC(=O)Nc2ccc(Cl)c(Cl)c2)C(=O)N1 (centres undefined) | inconclusive: 44.7 µM [inhibitor, partial curve] | –
COc1cc([N+](=O)[O-])ccc1NC(=O)CCCOc1ccccc1 | inconclusive: 31.6 µM [inhibitor, partial curve] | –
CCOc1ccc(/C=C/c2[nH]c(=O)[nH]c(=O)c2[N+](=O)[O-])cc1 | – | inactive: -4.47%
COc1ccc(S(=O)(=O)N(C)c2ccc(C(=O)NCc3ccco3)cc2)cc1 | – | inactive: -15.4%
Cc1cccc(N2CCN(C(=O)C3CCN(c4nnc(-n5cccc5)s4)CC3)CC2C)c1 (centres undefined) | inconclusive: 28.2 µM [inhibitor, partial curve] | –
C=C(C)COc1ccc(-c2n[nH]c(C)c2-c2ccc(OC)c(OC)c2)c(O)c1 | inconclusive: 14.1 µM [inhibitor, partial curve] | –
COC(=O)[C@@]1(Cc2ccc(OC)cc2)[C@H]2c3cc(C(=O)N(C)C)n(CCSCCO)c3C[C@H]2CN1C(=O)c1ccccc1 | inconclusive: 15.8 µM [inhibitor, partial curve] | –
Cc1ccc(NC(=O)c2cc(S(=O)(=O)NCCC3=CCCCC3)ccc2F)cc1 | inconclusive: 28.2 µM [inhibitor, partial curve] | –
Cc1ccc(C(=O)n2nc(-c3ccccc3)nc2NCc2ccco2)cc1 | – | inactive: -22.4%
O=C(CCn1c(=O)c2sccc2n(Cc2cc(=O)n3ccccc3n2)c1=O)NCc1ccco1 | – | inactive: -6.04%
O=c1cc2c(nn1Cc1c(Cl)cccc1Cl)-c1ccccc1CC2 | inconclusive: 7.08 µM [inhibitor, partial curve] | –
Cc1ccccc1-c1cc(C(=O)N/N=C/c2cccnc2)c2ccccc2n1 | inconclusive: 15.8 µM [inhibitor, partial curve] | –
Cc1ccc(NCC(=O)N/N=C/c2cccc(Oc3ccccc3)c2)cc1 | inconclusive: 12.6 µM [inhibitor, partial curve] | –
CCn1c(=O)n(CC)c2cc(N3CCCCC3)c(NC(=O)Nc3cc(Cl)ccc3OC)cc21 | – | inactive: 6.29%
Cn1ccnc1SCC(=O)Nc1cc(Cl)ccc1Cl | inconclusive: 28.2 µM [inhibitor, partial curve] | –
